Experimental data: the supplement of paper PMC3334620
Over roughly 33,000 sequences, “E-score (-0.5 to 0.5)” has its median near -0.054; the highest 2% begin near 0.39. Some of the results follow.

What follows are sequences tested against Ylr278c (UniProt Q05854) (assay: PBM E-score (8-mer binding enrichment) (E-score (-0.5 to 0.5)); higher = stronger / more preferred TF binding; most listed sequences are background and not binding sites). Settings: protein concentration: 200 nM; construct: GST-DNA-binding domain.
How it was run: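 PURExpress in vitro transcription/translation supplied GST-tagged yeast transcription factors, either full-length or DNA-binding domain. Applied at about 100-200 nM to universal all-10-mer Agilent arrays double-stranded by primer extension, the bound protein was detected with fluorescent anti-GST. E-scores, modified Wilcoxon-Mann-Whitney statistics, were given by the Universal PBM Analysis Suite to ungapped eight-base words pooled with their reverse complements after masliner normalisation.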

Sequence	PBM E-score
CAAAATCC	0.335
ATAACCAA	-0.0848
AGCCACAA	-0.0479
TCTAAGCA	-0.105
AATAGTGG	-0.149
AAAAATCT	-0.0213
GCAACCGA	-0.136
GGATGTGA	0.0636
CGGTCGGC	0.311
AGAGTTAA	-0.262
AACGAGGA	-0.12
GAACCCGC	0.196
GGAATTCC	0.441
CGAAGTTC	0.0669
AACTTGCC	-0.0566
AACCCGTG	-0.127
GAACTCGA	-0.14
CACCAATG	0.0486
AGAAAAGA	-0.162
AGAGTCGG	0.179
TCTACGCA	-0.139
AAACGGAT	0.242
GCCGAATA	0.261
GCACTTAA	-0.0787
ACCTGACT	-0.171

Sequence	PBM E-score
ATTGCTCG	0.125
CCGTCTAC	0.141
CTTTCAAA	0.0824
CACGCCTC	-0.222
CCGAGGCA	0.0949
CCATGCGC	0.00176
AATTGGAC	0.0279
ACGCAGTC	-0.233
GGCTACGA	-0.0314
AGGACCCA	-0.0634
CATCATCC	-0.106
AATGTACA	0.051
CCTAGTAA	0.00285
AACTATAG	-0.0717
GGTGCACC	-0.00086
CAGAATCA	-0.264
CTCGACCA	-0.232
GTTCTTAA	0.0083
CTTTCTGC	0.0403
CTTAATCC	0.194
CATCGGTA	0.261
GCAGTCCC	-0.0348
GGGGTGAA	0.0354
ATTGGTGG	-0.0303
ACGTACAT	-0.0876

Sequence	PBM E-score
GTCATAGA	-0.171
CCGTGAAG	0.11
CTAGTTCC	0.0969
CTCCAAAC	-0.0559
CACGTTTA	-0.198
CTCACCTA	-0.134
GGTGTGCA	-0.277
GTGAACCA	-0.201
TACTCCTA	-0.187
AGTAGGTC	-0.121
AGGTCCCA	-0.224
CCAGGTGC	0.00287
CGGGGGAA	0.255
AGTAGGAA	-0.241
CCGGTCCA	0.21
AGCTTAGG	-0.123
ACCTAGAC	-0.125
CAGGTCCG	0.353
AGAACTGC	-0.211
GACAGTTA	0.138
AGATCACG	-0.12
TCCGCGAA	0.343
AAATAAAG	0.0294
TCACTAAA	-0.193
CGACTAAA	-0.01

Sequence	PBM E-score
AGCACAGG	-0.148
ATCACGAA	-0.154
ACCTCGAT	-0.00037
AAGACAGG	-0.18
GAGAGTCC	0.0243
CTTTATGA	-0.322
AATTGTAG	-0.178
CCGCGAAG	0.282
AAAAGCGG	0.28
CGACGCCA	0.0485
AGTGTCCA	-0.206
ATCAGCCC	-0.123
CCATATTC	0.0287
CAATGTCC	0.141
ACCTTCGG	0.263
GTGTTTCA	-0.144
AAAGGAAA	-0.00742
ATGTAACA	-0.0411
CTCGGCGA	0.354
GCTATAAC	-0.0616
AGGAAGGC	-0.204
CCCCACCC	0.24
CCCTACGC	-0.172
CTTCAGAA	-0.0137
GCCTGAAC	-0.217

Sequence	PBM E-score
GGGCCACC	-0.0283
AAATCTAA	-0.15
AGTTTTGA	-0.0999
ACTCTAAT	-0.121
GATCCTCC	0.166
GCAGCAAA	-0.104
ACTCCAAC	-0.00141
CGGGGGGC	-0.0107
GGGCCCAA	-0.132
CACGTGTC	-0.197
GGGATTGA	0.0278
GTGCCAGA	-0.175
CGGTATAC	0.23
GGTATGCA	-0.156
GCCTCACC	0.0697
GGCTCGAC	-0.177
CAGTATGC	-0.128
AGTGTAAA	-0.0393
TATCTCGA	-0.169
CGCTTGGA	-0.0659
AGAGGCCT	-0.21
AAGGTTGC	-0.111
ATCGATGG	-0.0527
ACTCACCT	-0.323
AAAGAGCA	-0.118

Sequence	PBM E-score
GTTGCTCA	-0.197
GAGTTTCC	0.288
CGGGACAG	0.182
AGCGCCAA	-0.242
GTTACCAA	-0.114
ACAGAGTC	-0.133
CCGAGAGA	0.228
CGGACAGC	0.267
ACGCGCGA	0.0879
AACTCATA	-0.035
AGTTATAT	0.0752
GTACGAAA	-0.238
ACTCTAGG	-0.285
GAACTATA	0.0455
GAACATTA	0.017
ATTGCCTG	-0.152
AGGGCCTG	-0.341
CCATCACA	-0.121
CACGGATG	0.12
AACTGATG	-0.186
AAAGGGTA	-0.168
AAGCGCCC	0.147
TCAAATCA	-0.315
CGAGTCTA	-0.0863
CAAGGGGA	-0.133

Sequence	PBM E-score
AAAAACCT	-0.046
CTGCCCGA	0.0786
AGTATTAG	0.134
CGGTGACC	0.137
AGCAACCA	-0.0573
AAATCGGC	0.355
TACCATCA	-0.286
AGGGGACC	-0.035
CGCTTTGA	-0.0158
ATAATAAA	0.0338
AACTCGCG	0.0802
CTAATACC	-0.0228
ATTAGTTG	-0.0328
GCCTACTA	-0.161
ACTAGTCC	0.136
GGGTAAGA	-0.0525
GCGCAAGC	-0.0163
ACGCTTAA	-0.169
ACACCAGC	-0.187
TAGACTCA	-0.143
ACTCGGTC	0.14
CACAGCAA	0.0615
ACTGCTAT	-0.0282
CGACGTAA	0.0877
GTCCCCGA	0.217

Sequence	PBM E-score
CGACTCAA	0.0186
ACCGGTAT	0.277
CGGTAAAC	0.109
AAGGTGGA	-0.0212
AATGGCGC	0.0672
ATCCTGAA	-0.0381
AGACATCG	-0.189
CGATTACA	-0.139
ATGCCAAA	-0.235
ATCGTAAA	-0.262
GGCGTGTA	-0.155
CTGGGTGA	-0.062
GCAACGCA	0.0823
CGGTGTCC	0.304
ACTTTTTA	-0.0457
TGCCCTAA	-0.106
AAGATAAC	0.0843
ACGTAGCT	-0.243
GCAGCGCC	0.0978
GCATAAAC	-0.0445
CACTAAGA	-0.0899
CGGGCCAA	0.154
ATCCTGTC	0.0186
ATAGCTCA	-0.219
AACATAGT	-0.0122

Sequence	PBM E-score
AGCTGATA	-0.116
AAAAAGAC	-0.0178
TCAGACGA	-0.171
CTAAGTAC	-0.176
AAGAGGAC	-0.219
CACATCAC	-0.0028
TCACCCGA	0.0882
AAGAGCGG	0.173
AGAGCAAT	-0.178
CACCTTTC	0.00591
GACATTGC	-0.11
ATATTTAA	0.0182
ATGGTCCC	-0.161
CGGTACTC	0.0568
CCGAATGC	0.316
TCCTAGCA	-0.125
TTCAAGAA	-0.0452
GGTTGTAA	-0.0633
CGGGCCGA	0.273
GCGGGGAA	0.286
CTGCCAAG	-0.181
AGAAAAAG	0.0464
GAAGGCCC	0.0957
CCTTCCCG	0.0813
AGTCAGGA	-0.0883

Sequence	PBM E-score
AGGGAAGC	-0.0222
TCGAGAAA	-0.12
ACATAGCA	-0.106
CTATTTAA	0.0636
ACTGCTCG	0.02
TAGGAATA	-0.0367
ATCGCGGG	0.195
AGTCTGAG	-0.266
AGTTAAGG	-0.213
CTACGTGC	-0.146
ATTTTATG	0.051
CCAGTACG	-0.2
GCAGAAGA	-0.114
AGACATAA	-0.0545
CCGTATAG	-0.0383
GTCTTTAA	-0.167
AGTCCATC	-0.0633
TATCGGAA	0.413
GTCGCTTA	0.0285
GTGCCCTA	-0.195
AATCCCAG	-0.0473
CTAGCGAC	-0.198
CGTCGCGA	0.0518
ACCTGGCT	-0.229
AACATGAC	-0.0624

Sequence	PBM E-score
GAGTACGA	0.138
GCCATGGA	-0.167
TCGGCTCA	0.0638
GCAGTATA	0.0183
CGGGGGCC	0.285
CACTCTGC	-0.137
AGACTGAT	-0.169
GGTCGGTA	0.163
CGTCAAGC	-0.0344
GTCCGTGA	0.278
AATGTTCA	-0.0955
CAAGAAGG	-0.19
GTGGACCA	-0.121
GATTGCCC	0.069
CGTTTGTC	0.113
CTAACCAC	-0.272
ACTGCTTC	0.0437
AGGACTAG	-0.101
GATGCACC	-0.00911
ATCATTTC	0.103
ATACAACG	0.0135
AGTACAAG	-0.122
AACACCAA	-0.272
CGCGTCGA	0.134
ACAGCACG	0.0776

Sequence	PBM E-score
AAAGGCAC	0.00534
CTAAAACC	0.0306
CGGCCTAG	0.162
ACTACTCA	-0.0182
ACGTACGT	-0.472
ACCGAGCG	0.225
AGTACTGG	-0.23
ACATCGTA	-0.0993
ATTAAAGA	-0.0341
ATGTTTGC	-0.05
TCGTTCCA	-0.13
ACATACGA	-0.142
TCCGTGCA	0.374
GTGATGGA	-0.0959
AGGCCTGG	-0.235
ACACAGCG	0.0171
TAGTCCAA	-0.0998
CGTTCCAC	0.0259
CTTAATTA	-0.106
CAGACTAC	-0.166
CAACCTTA	-0.26
ATAGACTC	-0.22
CAAGCCAA	-0.0404
GAGTAGCA	0.125
ACACTCCC	0.00682

Sequence	PBM E-score
CATTTTCA	0.0235
CAGGAATA	0.0546
GGTCCGTA	0.304
CCAAGTTA	-0.172
TTCCGAAA	0.43
ATTTAATC	0.135
GGAATAAA	0.144
CGGACCTA	0.338
GGGTCCAA	0.11
ATCATAAA	-0.233
TAAGTACA	-0.225
AATGGCCT	0.197
GGATGGAA	-0.0283
ATCAGCAG	-0.0402
ACAGCGTC	0.0813
AGGAGCCT	-0.00023
CACTGGAG	-0.173
ACATCCGG	0.444
GCTTGGGA	-0.0872
CGGACGCC	0.366
AATTTTAA	-0.0414
GGTTCGCA	0.0401
CTGGCTTA	-0.273
CTGTACCC	0.119
GGTAAAGA	0.00946

Sequence	PBM E-score
AATGAGTA	0.103
GCGGTGCA	-0.159
ATAGCCAA	0.0646
ATTAAATG	0.0368
CGTCTGAA	-0.218
AAATGCCC	-0.0631
ACCTTCCG	0.274
ACGATTTG	-0.161
CTATTAGC	0.00228
AACTGGGT	-0.0916
ATTGAGCC	0.0318
CAGTTTGC	-0.0455
CATAAAGG	-0.0712
CCTCCTAA	-0.122
CAGTCTCC	0.182
GATAGACC	-0.0282
ATAAAAAC	-0.171
CACCAGGC	-0.192
TATAAGGA	-0.0387
